In all, about 310,000 compounds went through this assay and about 2,200 (0.71%) showed an effect of 50% or more. Effects have a minus sign here. The list shows a part of the results.
Target: human ether-à-go-go-related gene (hERG) potassium channel (human, UniProt Q12809)
Assay: primary screen, population patch clamp on CHO cells stably expressing hERG

Sequence of human ether-à-go-go-related gene (hERG) potassium channel (Q12809 whole entry, looked up): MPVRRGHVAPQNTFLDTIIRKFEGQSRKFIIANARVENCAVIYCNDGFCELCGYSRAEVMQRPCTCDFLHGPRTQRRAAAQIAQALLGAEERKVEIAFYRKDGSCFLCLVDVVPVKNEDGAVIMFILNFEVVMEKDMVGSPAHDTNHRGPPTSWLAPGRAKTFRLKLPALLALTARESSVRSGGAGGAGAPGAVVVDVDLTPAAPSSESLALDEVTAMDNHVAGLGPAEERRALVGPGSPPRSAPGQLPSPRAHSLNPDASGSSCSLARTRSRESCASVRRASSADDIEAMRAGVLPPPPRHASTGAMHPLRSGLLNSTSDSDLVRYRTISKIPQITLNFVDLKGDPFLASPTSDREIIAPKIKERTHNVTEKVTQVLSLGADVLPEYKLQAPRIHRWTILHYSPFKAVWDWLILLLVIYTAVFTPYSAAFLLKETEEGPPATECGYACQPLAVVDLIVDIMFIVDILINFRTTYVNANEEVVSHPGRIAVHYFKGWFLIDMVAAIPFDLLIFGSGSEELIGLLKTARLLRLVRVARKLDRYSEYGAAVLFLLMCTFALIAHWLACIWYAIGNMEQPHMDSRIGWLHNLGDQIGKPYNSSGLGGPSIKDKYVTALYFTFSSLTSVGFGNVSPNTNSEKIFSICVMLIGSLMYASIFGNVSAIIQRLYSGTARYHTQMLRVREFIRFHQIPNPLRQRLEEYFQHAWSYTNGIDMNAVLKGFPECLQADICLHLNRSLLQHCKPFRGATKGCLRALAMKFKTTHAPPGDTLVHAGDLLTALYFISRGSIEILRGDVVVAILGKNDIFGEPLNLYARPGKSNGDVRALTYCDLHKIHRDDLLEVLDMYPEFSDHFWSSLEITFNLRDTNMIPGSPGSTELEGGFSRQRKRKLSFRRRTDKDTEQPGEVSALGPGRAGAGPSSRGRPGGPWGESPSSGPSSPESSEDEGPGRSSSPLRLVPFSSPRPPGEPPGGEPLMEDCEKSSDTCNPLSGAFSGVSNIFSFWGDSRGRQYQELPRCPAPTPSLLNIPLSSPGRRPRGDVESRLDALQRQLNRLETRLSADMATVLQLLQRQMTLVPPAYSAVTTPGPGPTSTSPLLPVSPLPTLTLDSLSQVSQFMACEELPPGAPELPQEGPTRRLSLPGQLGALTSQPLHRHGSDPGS

| SMILES | hERG current change (%, negative = inhibition) at 1uM |
| --- | --- |
| CC(C)CCNC(=O)c1ccc(Cl)c(N)c1 | 9.97% |
| COc1ccc(-c2csc(C)n2)cc1OC | -0.0122% |
| COc1ccc(C(=O)Nc2cnn(Cc3ccc(Cl)cc3)c2)cc1OC | -6.73% |
| CCCCCCCOc1ccc(C(=O)Nc2cccnc2)cc1 | 16.1% |
| CN(CC(=O)Nc1ccc(F)c(Cl)c1)S(=O)(=O)c1cccc2nsnc12 | -11.6% |
| COc1ccc(-c2nn(CC(=O)NCCc3ccccc3)c(=S)n2C)cc1 | 7.98% |
| O=C(CSc1nnc(-c2cccs2)n1CC1CCCO1)c1cc2ccccc2o1 (stereo not drawn) | 2.49% |
| Cc1cccc(Nc2nc(N)nc(CN3CCN(c4ccccc4F)CC3)n2)c1 | -45.8% |
| COc1cc2nc(C3CCC3)n(NC(=O)c3ccco3)c(=O)c2cc1OC | 6.35% |
| CCSc1ccccc1-c1nc(-c2ccncc2)no1 | 6.07% |
| Clc1cc(Cl)cc(Nc2ncn[nH]2)c1 | -7.88% |
| O=C(c1sc(N2CCOCC2)nc1-c1ccccc1)N1CCCCC1 | 23.6% |
| COC(=O)c1ccc(Cn2cc(/C=C\[N+](=O)[O-])c3ccccc32)o1 | 19.2% |
| CC(=O)c1cc(Cc2csc(C(C)=O)c2)cs1 | 5.44% |
| COC(=O)c1ccc(CSc2nnc(-c3ccncc3)o2)cc1 | 15% |
| COCC(=O)N1CCC(Oc2ccc(C(=O)N3CCCCCCC3)cc2)CC1 | 15.3% |
| COc1ccc(CCNC(=O)c2cc(-c3ccccc3OC)on2)cc1OC | 5.24% |
| O=[N+]([O-])c1cccc(-c2nnc(-c3ccccc3)o2)c1 | 17% |
| N#CCCSCc1ccc(OCC(=O)O)cc1 | 5.2% |
| CC1(Cc2cn(CCC#N)c3ccccc23)OCCO1 | 9.39% |
| CC(=O)OCCOCn1cnn2c(=O)c(Br)c(C)nc12 | 2.99% |
| COc1ccc(NC(=O)CSc2nc3[nH]ncc3c(=O)n2-c2ccccc2C)cc1OC | 10.5% |
| N#CCC(=O)N/N=C/c1c2ccccc2cc2ccccc12 | 8.78% |

| SMILES | hERG current change (%, negative = inhibition) at 1uM |
| --- | --- |
| Cc1ccccc1NC(=O)Cc1nc(COC(=O)c2cc([N+](=O)[O-])ccc2N)cs1 | -1.61% |
| COc1cc(C(=O)NCCC(=O)NC(C)C)cc(OC)c1OC | 11.8% |
| CCOC(=O)COn1c(=O)c[n+]([O-])c2ccccc21 | 4.22% |
| Cc1cc(C)n(-c2ccc(C(=O)OCC(=O)Nc3ccc(Cl)cc3[N+](=O)[O-])cc2)n1 | 15.9% |
| O=C1C2CC=CCC2C(=O)N1c1nc2n(n1)C(c1ccccc1)CC(c1ccccc1)N2 (stereo not drawn) | -5.26% |
| COc1cc(C(=O)NCCc2ncccc2C)ccc1OC1CCN(C(C)=O)CC1 | 20.3% |
| CCOC(=O)CSc1nc(N2CCOCC2)c2c(c1C#N)CC(C)(C)N(C)C2 | -5.97% |
| CCOC(=O)N/N=C/c1ccc(F)cc1F | 16.1% |
| Cc1ccc(C(=O)N2CCc3cc4c(cc3C2C)OCCCO4)cc1 (stereo not drawn) | 17.4% |
| Cc1cc(C(=O)NCc2ccco2)on1 | 5.08% |
| O=C(CCC(=O)Nc1ccccc1Cl)NNC(=O)c1ccco1 | 14.5% |
| O=C(Nc1nc(-c2ccccc2)cs1)C1COc2ccccc2O1 (stereo not drawn) | 3.26% |
| COc1ccccc1CN1[C@@H](CC(=O)O)c2cc(F)ccc2S1(=O)=O | 13.9% |
| CN(CC(=O)Nc1ccccc1Cl)C(=O)CSc1nc2ccccc2s1 | 12.6% |
| FC(F)(F)c1ccc(C2NCCc3sccc32)cc1 (stereo not drawn) | -3.93% |
| CCN(CC(=O)Nc1ccc(S(N)(=O)=O)cc1)S(=O)(=O)c1cc(C)ccc1OC | 3.66% |
| Cc1ccccc1NC(=O)C1CC(Cl)=CCC1C(=O)O (stereo not drawn) | -13% |
| CCC1CCCCN1C(=O)c1ccc2nc(Cc3ccc(OC)cc3)oc2c1 (stereo not drawn) | 16% |
| CC(=O)N1CCCc2cc(S(=O)(=O)N3CCCC3)ccc21 | 9.93% |
| C=CCN=C(NC#N)SCC(=O)c1cccc(OC)c1 | 8.31% |
| Cc1c(NC(=O)c2cnc(Cl)c(Cl)c2)c(=O)n(-c2ccccc2)n1C | 10.8% |
| COc1ccc(-c2nc3cc(C)ccn3c2NCC2CCCO2)cc1OC.Cl (stereo not drawn) | -55.3% |
| Cc1ccnc(NC(c2ccccc2O)c2oc(CO)cc(=O)c2O)c1 (stereo not drawn) | 2.02% |

| SMILES | hERG current change (%, negative = inhibition) at 1uM |
| --- | --- |
| O=C(CNc1ccccc1OC(F)F)N1CCc2ccccc21 | 18.8% |
| COc1cc(F)ccc1CN1CCC(n2nccc2NC(=O)C2CCOC2)CC1 (stereo not drawn) | -5.11% |
| COc1cc2cc(CN(CCc3ccccc3C)C(=S)NCCCN3CCOCC3)c(=O)[nH]c2cc1OC | 12.2% |
| COc1cccc(OC)c1/C=C/C(=O)NC1CCCCC1 | 16.5% |
| COc1ccc(-c2nc(CN3CCC(C(=O)N4CCOCC4)CC3)c(C)o2)cc1OC | -2.9% |
| CCC(C)c1ccccc1NC(=O)COC(=O)CCc1cc(OC)c(OC)c(OC)c1 (stereo not drawn) | 3.26% |
| Cc1ccc(S(=O)(=O)N2CCCCC2CCNC(=O)C(=O)Nc2ccccc2F)cc1 (stereo not drawn) | 13% |
| COc1ccc(CCn2nnnc2CN2CCN(C(=O)c3ccco3)CC2)cc1OC | 7.61% |
| Cc1cc(=O)oc2cc(OCC(=O)Nc3nnc(CC(C)C)s3)ccc12 | 5.77% |
| CC(NC(=O)c1ccc(CS(C)(=O)=O)cc1)c1ccc(-c2ccccc2)cc1 (stereo not drawn) | 13.1% |
| CC(=O)c1cccc(NC(=O)c2cc(-c3ccc(C)cc3)on2)c1 | 13.5% |
| O=C(NN1C(=O)/C(=C/c2cccnc2)SC1=S)C(c1ccccc1)c1ccccc1 | -1.76% |
| Cc1cccc2cc(C3CC(c4ccco4)=NN3C(=O)CCC(=O)O)c(Cl)nc12 (stereo not drawn) | 11.3% |
| CNC(=O)CSc1nnc(-c2ccccc2F)n1CCc1ccccc1 | -2.75% |
| COCC(C)NC(=O)c1ccc(Cl)c(Cl)c1 (stereo not drawn) | 2.31% |
| Cc1ccc(OCC(=O)Nc2c3c(nn2C(C)(C)C)CS(=O)(=O)C3)cc1 | -13.8% |
| COc1ccc2nc(-c3ccccn3)[nH]c2c1 | 7.06% |
| COc1ccc(OCc2cc(C(=O)NCc3nc(C)cs3)no2)c(Cl)c1 | 6.12% |
| O=C(CNC(=O)c1ccccc1)NC1(C(=O)NC2CCCC2)CCCCC1 | -0.415% |
| Cc1cc(C(=O)OCC(=O)NCCc2ccc(S(N)(=O)=O)cc2)c2ccccc2n1 | 16% |
| Cn1c(C(O)C(O)c2ccccc2)nc2ccccc21 (stereo not drawn) | 10.1% |
| COc1ccc(N2CCN(C(CNC(=O)C3CCCCC3)c3cccnc3)CC2)cc1 (stereo not drawn) | 6.81% |
| COc1ccc(NC(=O)c2cc(S(=O)(=O)N(Cc3ccccc3)c3ccccc3)ccc2Cl)cn1 | 1.84% |

| SMILES | hERG current change (%, negative = inhibition) at 1uM |
| --- | --- |
| CC(=O)c1cn(CC(=O)Nc2ccc(C)cc2)c2ccccc12 | 11.5% |
| O=C(/C=C/c1ccccc1Cl)N(Cc1cccs1)C1CCS(=O)(=O)C1 (stereo not drawn) | 13.8% |
| O=C1NC(=Nc2ccccc2)S/C1=C\C=C\c1ccco1 | 14.7% |
| Cc1ccc(S(=O)(=O)N2CCCOC2CNC(=O)C(=O)NCc2cccnc2)cc1 (stereo not drawn) | 14.2% |
| Cn1cc(-c2nnnn2-c2ccc(Cl)cc2)c(=O)c2ccccc21 | -66.3% |
| COc1cc(NC(=O)c2ccccc2-n2cnnn2)cc(OC)c1 | 11.7% |
| C(=C\c1ccco1)/C1=NN(c2ccccc2)C(c2ccco2)C1 (stereo not drawn) | 13.3% |
| O=C(O)CC1S/C(=N\N=C2CCCCCC2)N(c2ccccc2)C1=O (stereo not drawn) | 3.19% |
| COc1ccc(/C=N/Nc2nc3ccccc3c(=O)n2-c2ccccc2)cc1OC | 3.5% |
| COc1ccc(-c2cc3nc(CCl)[nH]c(=O)c3s2)cc1 | 11.2% |
| COc1ccc(CCC(=O)Nc2ccc(C(=O)c3ccncc3)cc2)cc1 | 12.9% |
| Nc1cccc2c1C(=O)N(Cc1cccc(Cl)c1)C2=O | 8.35% |
| COC(=O)c1cccc(Oc2nc3c(c(=O)n(C)c(=O)n3C)n2Cc2ccc(C)cc2)c1 | 9.99% |
| CCOC(=O)c1cc(S(=O)(=O)N2CCCC2)cn1C | 15% |
| COc1ccc(CN2CCN(Cc3ccc(C)cc3)C(CCO)C2)cc1OC (stereo not drawn) | -13.3% |
| CCOC(=O)c1[nH]c(C)c(C(=O)OCC(=O)NCc2ccc(OC)cc2)c1C | 8.09% |
| COc1ccc(N2C(=O)CC(c3cc(OC)c(OC)c(OC)c3)CC2=O)cc1 | 7.75% |
| CC/C(=N\NC(=O)c1nnn(-c2nonc2N)c1-c1ccc2c(c1)OCO2)c1ccccc1 | 9.96% |
| O=c1oc2c(CN3CCOCC3)c(O)c(Cl)cc2c2c1CCCC2 | 7.18% |
| O=C(CSc1ccc(-c2ccc(Cl)cc2)nn1)NC1CCCC1 | 12% |
| O=C(Nc1ncc([N+](=O)[O-])s1)c1ccccc1Br | 13.3% |

— article PMC4336329 (PLoS ONE, 2015)
